Test results from PubChem BioAssay AID493208 (National Center for Advancing Translational Sciences (NCATS), 2011).
Among all 44,000 compounds or so, about 340 (0.77%) were called active. Another 5% or so got no clear call; they are omitted. Calls come from the whole dose curve; as a rule, active = well fitted inhibition curve with a large enough effect; inconclusive = small, poorly fitted or top-dose-only effect; inactive = flat fitted curve, though single readings scatter. This is one part of the list.

experiment: Acumen qHTS Assay for Inhibitors of the mTORC1 Signaling Pathway in MEF (Tsc2-/-, p53-/-) Cells: Sytravon; conditions: phospho-rpS6 immunofluorescence/PI, 24 h; series mostly up to 38.3 µM; activity change, negative = inhibition: at the top concentration;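 note: plate controls were DMSO for no effect and rapamycin for full effect; nearly all actives have a fitted effect of over 50% in size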
How it was run: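 Immunofluorescence of rpS6 phosphorylation in Tsc2-/-, p53-/- MEFs after 24 h compound exposure, normalized to propidium iodide signal. Activity is expressed as % positive cells, thresholded with 7.5 nM rapamycin.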

SMILES	activity change, negative = inhibition
CCOC(=O)N1CCc2c(sc3c2c(=O)n(Cc2ccccc2)c(=O)n3CC(=O)Nc2ccc(C)c(C)c2)C1	inactive: -7.79%
CCC(C(=O)Nc1cc(F)ccc1F)n1nc(-c2cc(C)ccc2C)ccc1=O (stereo not given)	inactive: -4.28%
Cc1ccc(NC(=O)CCC(=O)N2CCSc3ccccc32)cc1Cl	inactive: -18.5%
Cc1c(Cl)cccc1NC(=O)Nc1nnc(N(C)Cc2ccccc2)s1	inactive: 1.95%
Cc1c(NC(=O)C(C)(C)Oc2ccc(Cl)cc2)cccc1-c1nc2ncccc2o1	inactive: -0.0391%
CC1=C(C(=O)NCc2ccccc2C)C2(CCCCC2)OC1=O	inactive: -5.46%
CC(=O)c1ccc(NC(=O)Cn2cc(S(=O)(=O)Cc3ccccc3Cl)c3ccccc32)cc1	inactive: -3.22%
O=C(COc1ccccc1[N+](=O)[O-])Nc1cccc(-c2nc3ccccc3s2)c1	inactive: -24%
COc1ccc(N(CC(=O)Nc2cc(C)ccc2C)S(=O)(=O)c2ccc(OC)c(OC)c2)cc1	inactive: 3.89%
Cn1c(=O)c2c(nc(Oc3ccccc3)n2Cc2c(Cl)cccc2Cl)n(C)c1=O	inactive: -2.83%
COCCCNC(=O)CSc1nc2cc3c(cc2c(=O)n1CCCC(=O)NCc1ccc(OC)cc1)OCO3	inactive: -15.7%
CCOc1ccc(NC(=O)CN2C(=O)COc3ccc(S(=O)(=O)NC4CCCC4)cc32)cc1	inactive: 0.841%
COc1cc(NC(=O)CSc2nc3nc(C)c(Cc4ccc(C)cc4)c(C)n3n2)cc(OC)c1OC	inactive: 8.45%
O=C(Nc1ccc(F)cc1F)c1ccc2c(O)c(S(=O)(=O)c3ccc(Cl)cc3)c(=O)[nH]c2c1	inactive: 3.36%
CCc1ccc(C2c3c(oc4ccc(F)cc4c3=O)C(=O)N2c2nc(C)c(C(=O)OC)s2)cc1 (stereo not given)	inactive: 4.58%
O=C(Nc1c(C(=O)O)oc2ccccc12)c1ccc(C(F)(F)F)cc1	inactive: -4.35%
O=C(CSc1cn(CC(=O)N2CCOCC2)c2ccccc12)Nc1ccccc1	inactive: 0.814%
O=C(COCc1cc(-c2ccc3c(c2)OCO3)on1)NCc1ccccc1Cl	inactive: -10.3%
COc1ccccc1OCC(=O)NCc1nc(-c2ccc(Cl)cc2)no1	inactive: 3.69%
CCOc1ccc(C(=O)Nc2ccc(S(=O)(=O)Nc3nc(C)cc(C)n3)cc2)cc1OC	inactive: 2.46%

SMILES	activity change, negative = inhibition
O=C(COc1ccccc1)Nc1ccccc1OCc1cc(=O)n2ccccc2n1	inactive: -2.81%
CC1=C(c2ccc(C)c(C)c2)S(=O)(=O)N(Cc2ccc(C(=O)NC(C)c3ccccc3)cc2)C1=O (stereo not given)	inactive: -9.73%
Cc1ccccc1Cc1c(C)nc2nc(SCC(=O)NCCc3ccc(Cl)cc3)nn2c1C	inactive: -26.8%
O=C(CN1C(=O)CCc2cc(S(=O)(=O)N3CCOCC3)ccc21)Nc1cccc(C(F)(F)F)c1	inactive: 7.81%
Cc1ccc2c(=O)cc(C(=O)Nc3sc4c(c3C(=O)NCc3ccccc3)CCCC4)oc2c1C	inactive: 6.19%
CCCCCCOc1ccc(C2C(=O)N(C3CCCCC3)CC(=O)N2CCCC)cc1 (stereo not given)	inactive: 13.7%
CCOc1cccc(C(=O)Nc2cc(-c3ccc(C)cc3)no2)c1	inactive: -1.29%
CN(C)c1ccc(CNC(=O)CCS(=O)(=O)c2ccc3c(c2)oc(=O)n3C)cc1	inactive: -8.22%
O=C(Nc1sc2c(c1C(=O)N1CCCCC1)CCCC2)c1ccccc1Cl	inactive: -2.25%
Cc1noc(Cn2c(=O)c3cc4c(cc3n(CC(=O)Nc3ccccc3Br)c2=O)OCO4)n1	inactive: -6.41%
COc1ccc(NC(=O)CNC(=O)Cn2c(C)cc3ccccc3c2=O)cc1OC	inactive: -22.2%
CCCS(=O)(=O)N1CCCC(C(=O)NCCOC)C1 (stereo not given)	inactive: -6.72%
Cc1ccccc1CNC(=O)CN(c1cccc(C)c1C)S(C)(=O)=O	inactive: -12.1%
CCCCN(CCCC)C1=C(C(=O)c2ccccc2)N(C)S(=O)(=O)c2ccccc21	inactive: 2.48%
CCOc1ccc(NCc2cccn2-c2nnc(N3CCC(C(=O)NCCOC)CC3)s2)cc1	inactive: -6.09%
C=C(C)Cn1c(=O)c2c(nc3n2CCN3c2ccc(F)cc2)n(C)c1=O	inactive: 10.1%
Cc1cc(=O)n2nc(N3CCC(C(=O)NCc4ccc(F)cc4)CC3)sc2n1	inactive: 0.29%
CCOc1ccc(-c2nc(Cn3ccn4nc(-c5ccc(OCC)c(Cl)c5)cc4c3=O)c(C)o2)cc1	inactive: 0.259%
COc1ccccc1/C=C/c1nc(C#N)c(NCCc2ccccc2)o1	inactive: -2.64%
Cc1ccccc1Nc1cc(C(=O)NCc2cccs2)c2ccccc2n1	inactive: -0.798%

SMILES	activity change, negative = inhibition
COc1ccc(C)cc1N(C)C(=O)c1c2c(nc3ccccc13)C(=O)N(C1CCCCC1)C2	inactive: -0.537%
CCOc1ccc(N(CC)S(=O)(=O)N2CCCC(C(=O)Nc3cc(Cl)ccc3OC)C2)cc1 (stereo not given)	inactive: -3.08%
COc1ccc(Nc2ncc(C(=O)N3CCN(c4ccc(F)cc4)CC3)c3ccccc23)cc1	inactive: -20.5%
COc1ccc(-c2nc3scc(CCNS(=O)(=O)c4ccc(NC(C)=O)cc4)n3n2)cc1	inactive: 0.232%
CCOC(=O)c1ccc(NC2SC(=O)N(Cc3cccc(C(=O)O)c3)C2=O)cc1 (stereo not given)	inactive: -1.39%
COc1cc2nc(SCC(=O)Nc3ccccc3F)n3nc(-c4ccccc4)nc3c2cc1OC	inactive: -0.468%
CCOc1ccc(Cn2c(CNS(=O)(=O)c3cccc(Cl)c3)nc3cccnc32)cc1	inactive: -0.108%
CCc1ccc(NC(=O)CSc2nc3c(sc4ccccc43)c(=O)n2CCCOC(C)C)cc1	inactive: 6.48%
COc1ccccc1C(=O)N1CCN(Cc2cc(=O)oc3cc(C)ccc23)CC1	inactive: 2.2%
COc1ccc(-c2nc3ccc(NS(=O)(=O)c4ccc(Cl)cc4)cc3o2)cc1	inactive: 0.771%
Cc1ccc(CNC(=O)c2ccc(CSCc3ccccc3C)o2)cc1	inactive: 3.82%
COc1ccccc1NC(=O)CSC1=Nc2ccccc2C2=NC(CCC(=O)NCc3cccs3)C(=O)N12 (stereo not given)	inactive: 1.43%
COc1ccc(-n2cc(C(=O)NCc3ccccc3Cl)c3ccccc3c2=O)cc1	inactive: -2.07%
CCCCN(CC)C(=O)Cn1ncc2c3ccccc3n(CCC)c2c1=O	inactive: -12.5%
Cn1c(=O)[nH]c2cc(-c3noc(-c4cccc(Cl)c4)n3)ccc21	inactive: -1.8%
CCOc1cccc(C(=O)N(Cc2ccc(CC)cc2)C2CCS(=O)(=O)C2)c1 (stereo not given)	inactive: -9.57%
CCCNC(=O)Cn1nc(-c2ccc(F)cc2)c2cnc3ccc(F)cc3c21	inactive: 0.822%
CCC(C)NC(=O)c1cccc(NC(=O)c2nsc3ccccc23)c1 (stereo not given)	inactive: -15.2%
CC(=O)C1=C(c2ccc(Cl)cc2)N(C(C)=O)n2c(nnc2C2CCCCC2)S1	inactive: 0.395%
Cc1ccc(Cl)cc1N(C)C(=O)c1cn(C2CCCCC2)c(=O)c2c1c1ccccc1n2C	inactive: 1.16%
